This is an account of results in ChEMBL document CHEMBL4888484, “Replenishing the malaria drug discovery pipeline: Screening and hit evaluation of the MMV Hit Generation Library 1 (HGL1) against asexual blood stage Plasmodium falciparum ,using a nano luciferase reporter read-out” (2022).

Each structure is given as a SMILES string. The campaign covered roughly 150,000 compounds. About 540 (0.36%) showed an effect of 50% or more. Some of the results follow.

This experiment relates to Plasmodium falciparum. The experiment in a line: Primary screen in NF54 nanoGlo assay, in single point, at 2uM, 72h; a lower Z score goes with more inhibition. To be noted: timepoint 72 hour. The class given is functional, Erythrocyte.
With `CC[C@H](C)N(CC(=O)N1CCN(c2ccc(-c3ccc(OC)c(OC)c3)nn2)CC1)C(=O)C1CCC1`, the “% Inhibition” value was determined as 2% and the Z score is listed as -0.23.

With `Cc1ccc(C(=O)N[C@H]2COC[C@@H]2O)c2c1CCC2`, the “% Inhibition” value stood at 3% and the Z score is reported as -0.49.

Turning to `CN1CCC(N[C@H]2C[C@@H](Cc3cc(COc4ccccc4)on3)C2(C)C)CC1`, the “% Inhibition” value came to 22% and the Z score is recorded as -2.61.

Consider `COCC(=O)N[C@@H]1CCN(C(=O)Cc2ccc(Cl)cc2)C[C@@H]1CO`, for which the “% Inhibition” value was -1% and the Z score stood at 0.17.

For the molecule `CCNc1ncnc2sc(C(=O)N3CCCC3)c(C)c12`, the “% Inhibition” value is reported as -15% and the Z score is 2.08.

On to `Cc1ccc(S(=O)(=O)c2c(Nc3ccccc3)nn3c(O)cc(CS(=O)(=O)c4ccccc4)nc23)cc1`, for which the “% Inhibition” value was -8% and the Z score was determined as 1.4.

Regarding `CCOC(=O)c1cnc(-c2cccc(C(F)(F)F)c2)nc1N1CCCC2CCCCC21` (centres undefined), the “% Inhibition” value was -13% and the Z score came out at 1.49.

For the molecule `CN(Cc1ccc(Cl)c(Cl)c1)C1CC[S+]([O-])CC1` (centres undefined), the “% Inhibition” value is -6% and the Z score worked out at 0.64.

`CC1CCCC(C(=O)N2CCC3(C2)NC(=O)NC3=O)C1` (centres undefined): the “% Inhibition” value was 3% and the Z score is on record as -0.37.

As to `Cc1c(Br)cccc1C[C@H](CO)CNC(=O)CC1CC1`, the “% Inhibition” value is -25% and the Z score worked out at 2.97.

As to `CCC(=O)N1CCC(NC(C)c2nc(C)no2)C(CC)C1` (centres undefined), the “% Inhibition” value is 5% and the Z score is reported as -0.85.

With `Cc1nc(C)c(C(=O)N2CCc3cnccc32)o1`, the “% Inhibition” value is 4% and the Z score is -0.53.

Regarding `CC(O)CN1CCN(C(=O)c2ccncc2Cl)C(C)C1` (centres undefined), the “% Inhibition” value worked out at 4% and the Z score is reported as -0.53.

Consider `CC(=O)c1ccc(N2CCN(C(=O)C3CCOCC3)CC2)cc1`, for which the “% Inhibition” value turned out to be 0% and the Z score is -0.05.

`COC(C)(C)c1noc(-c2ccc3c(N)ncnc3c2)n1`: the “% Inhibition” value was -10% and the Z score is reported as 2.01.

Regarding `Cc1ccc2c(c1)CCN2CCc1ccc(C)nc1`, the “% Inhibition” value was determined as 9% and the Z score is -1.32.

`O=C(NC1CCC(F)(F)CC1)c1ccn[nH]1`: the “% Inhibition” value was -30% and the Z score is 3.85.

Take `CCCS(=O)(=O)CC(=O)Nc1ncc(C2CCCCC2)s1`: the “% Inhibition” value is -3% and the Z score is given as 0.28.

Take `C=CCCOCCN=C(N)N1CCC[C@H](C)C1`: the “% Inhibition” value is given as -5% and the Z score is recorded as 0.61.

With `CCN(Cc1ccc(OC)cc1)C(=O)CCc1nc(-c2cc3ccccc3nc2O)no1`, the “% Inhibition” value is given as 13% and the Z score is -2.49.

On to `O=C(CCCN1CCN(Cc2ccc(F)cc2)C(=O)C1=O)NCc1ccc2c(c1)OCO2`, for which the “% Inhibition” value was -2% and the Z score came out at 0.37.

For `CCc1nnc(-c2cc(NC(=O)c3cnccn3)c(C)s2)o1`, the “% Inhibition” value is on record as -30% and the Z score is 2.93.

`CC(C)C(=O)NC[C@@]12CCCC=C1N(CC1CC1)C(=O)CC2`: the “% Inhibition” value is -5% and the Z score came to 0.7.

Consider `COc1ccc(N2CCN(c3cc(Nc4ccc(C)cc4)ncn3)CC2)cc1`, for which the “% Inhibition” value was found to be 1% and the Z score is -0.11.

Turning to `O[C@H]1[C@H](NCc2ccc(Cl)c(Cl)c2)[C@H]2CO[C@H](O2)[C@@H]1n1cc(Cl)cn1`, the “% Inhibition” value is -9% and the Z score amounted to 1.4.

On to `COCCc1noc([C@@H]2CCCN2C(=O)c2cc(-c3cccn3C)n[nH]2)n1`, for which the “% Inhibition” value is given as -3% and the Z score amounted to 0.32.

`Cc1c(CN2CC[C@H](CNC(=O)NC(C)C)C2)[nH]c2ccccc12`: the “% Inhibition” value is listed as -9% and the Z score worked out at 1.48.

On to `O=C(Nc1ccc2c(c1)OCCO2)c1ccc2c(c1)N(Cc1ccc(F)cc1)C(=O)CO2`, for which the “% Inhibition” value is -7% and the Z score amounted to 1.29.

Take `CC(C)C(=O)Nc1nnc(CC2=CCCCC2)s1`: the “% Inhibition” value was -4% and the Z score is recorded as 0.47.

Take `COc1ccccc1C1c2[nH]c3ccccc3c2C[C@H]2C(=O)N(CC(O)c3ccccc3)CC(=O)N12` (some centres undefined): the “% Inhibition” value worked out at 30% and the Z score is -4.49.

As for `N#Cc1c(N)sc2c1CCN(c1cc(-n3ccnc3)ncn1)C2`, the “% Inhibition” value is listed as 4% and the Z score was -0.48.

`Cc1cc(Cl)cc(C(=O)N[C@@H](CN)C2CCCC2)c1`: the “% Inhibition” value is -2% and the Z score is recorded as 0.32.

With `C#CCOCC(O)CN(Cc1ccccc1F)C(C)CC` (centres undefined), the “% Inhibition” value is given as -1% and the Z score amounted to 0.13.

Take `Cc1cnc(C)c(-c2ccc(C(=O)NCC[C@H]3CCCN3C)cc2)n1`: the “% Inhibition” value is -7% and the Z score was 0.91.

With `C[C@H](Nc1nc(Nc2ccccc2F)nc(Nc2ccccc2F)n1)C(=O)NC1CCCCC1`, the “% Inhibition” value was found to be 2% and the Z score was -0.28.

Consider `COc1ccc(S(=O)(=O)N2CCC[C@@H]2Cc2noc(-c3cnccn3)n2)cc1`, for which the “% Inhibition” value is reported as -3% and the Z score came to 0.48.

Regarding `CC[C@H]1COCCN1C(=O)c1ccc(Cn2ccc3ccccc32)o1`, the “% Inhibition” value was -4% and the Z score stood at 0.71.

As to `Cc1cc(N2CCN(c3cc4c(nn3)CCC4)CC2)nc(C2CC2)n1`, the “% Inhibition” value was 10% and the Z score is given as -1.34.

For `C#Cc1ccc(NC(=O)c2scnc2CCc2ccncc2)cc1`, the “% Inhibition” value was -2% and the Z score was 0.23.

Regarding `Cc1ccc(Cn2cccc2C(=O)C(=O)NCc2ccccc2)cc1C`, the “% Inhibition” value was 2% and the Z score was -0.18.

With `CCS(=O)(=O)c1cc(F)ccc1NC(=O)NC1CC1C` (centres undefined), the “% Inhibition” value is recorded as -9% and the Z score was 1.06.

As to `CN1C2CCC1CC(Nc1nccn3nc(C(F)(F)F)cc13)C2` (centres undefined), the “% Inhibition” value is -6% and the Z score came out at 0.71.
